Test results as given in PMC4336329 (PLoS ONE, 2015).
Hit rate of the full screen: of about 310,000 compounds, about 14,000 (4.5%) showed an effect of 50% or more. Effects have a minus sign here. The list shows a part of the results.

These molecules were tested against human ether-à-go-go-related gene (hERG) potassium channel (human, UniProt Q12809) (assay: primary screen, population patch clamp on CHO cells stably expressing hERG).
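Note: peak tail current of the secondary pulse compared with the same well before compound.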

Chain of human ether-à-go-go-related gene (hERG) potassium channel (Q12809 whole entry, looked up): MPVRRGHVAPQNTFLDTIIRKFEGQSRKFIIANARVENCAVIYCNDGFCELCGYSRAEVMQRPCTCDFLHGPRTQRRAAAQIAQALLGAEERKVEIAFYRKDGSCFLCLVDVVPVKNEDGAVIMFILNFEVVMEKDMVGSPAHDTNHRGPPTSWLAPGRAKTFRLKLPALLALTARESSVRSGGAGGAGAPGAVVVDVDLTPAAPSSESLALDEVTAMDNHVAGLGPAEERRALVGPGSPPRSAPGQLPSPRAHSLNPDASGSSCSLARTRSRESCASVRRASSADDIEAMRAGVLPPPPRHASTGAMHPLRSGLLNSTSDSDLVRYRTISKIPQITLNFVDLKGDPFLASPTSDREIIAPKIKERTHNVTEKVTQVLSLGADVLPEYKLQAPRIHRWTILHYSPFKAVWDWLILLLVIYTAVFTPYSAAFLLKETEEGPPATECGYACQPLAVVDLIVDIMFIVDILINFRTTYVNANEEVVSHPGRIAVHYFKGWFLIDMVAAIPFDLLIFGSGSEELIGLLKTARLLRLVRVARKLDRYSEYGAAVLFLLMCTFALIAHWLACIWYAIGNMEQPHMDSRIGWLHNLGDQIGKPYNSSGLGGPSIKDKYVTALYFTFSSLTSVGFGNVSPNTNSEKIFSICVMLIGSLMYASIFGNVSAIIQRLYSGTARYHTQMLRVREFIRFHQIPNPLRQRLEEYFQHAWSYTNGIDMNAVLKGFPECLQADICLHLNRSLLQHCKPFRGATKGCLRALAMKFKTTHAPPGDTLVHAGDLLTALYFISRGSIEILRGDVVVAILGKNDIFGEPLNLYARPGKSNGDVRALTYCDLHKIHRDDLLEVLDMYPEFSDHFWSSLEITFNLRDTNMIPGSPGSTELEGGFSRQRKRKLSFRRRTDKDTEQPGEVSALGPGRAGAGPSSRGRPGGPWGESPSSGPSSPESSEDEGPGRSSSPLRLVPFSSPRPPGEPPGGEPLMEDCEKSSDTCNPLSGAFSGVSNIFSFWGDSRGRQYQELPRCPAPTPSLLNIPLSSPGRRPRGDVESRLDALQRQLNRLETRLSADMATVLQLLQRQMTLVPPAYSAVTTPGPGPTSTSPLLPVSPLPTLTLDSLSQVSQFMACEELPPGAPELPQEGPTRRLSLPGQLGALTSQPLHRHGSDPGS

Compared with `Clc1nn2cnnc2c2ccccc12`, `CCN(C(=O)CSc1nccn1C)c1cccc2ccccc12` is lower in “hERG current change (%, negative = inhibition) at 10uM” value: 8.76% for the first, -7.15% for the second.

First: Cc1c2c(nc3ccccc13)CCC(C(C)(C)C)C2.Cl (stereo not shown)
Second: Cc1cc(C)nc(N/N=C2/CCCC/C2=C\c2ccccc2)n1
The “hERG current change (%, negative = inhibition) at 10uM” value of the first is lower: -6.8% for the first, 36.5% for the second.

Compared with `CC(C)C(=O)Nc1nnc(S(=O)(=O)N2CCc3ccccc32)s1`, `CCN(CC)C(=O)N1CCN(S(=O)(=O)c2ccccc2)CC1` is higher in “hERG current change (%, negative = inhibition) at 10uM” value: -3.87% for the first, 19.8% for the second.

Compared with `N#C/C=C(/N)c1ccc(Br)cc1`, `O=C(C1CCCO1)N1CCN(S(=O)(=O)c2ccc(Br)cc2)CC1` (stereo not shown) is lower in “hERG current change (%, negative = inhibition) at 10uM” value: 7.26% for the first, -6.15% for the second.

First: CNC(=S)NNc1ccccc1[N+](=O)[O-]
Second: O=C(CCNC(=O)c1ccccc1)Oc1ccc([N+](=O)[O-])cc1
The “hERG current change (%, negative = inhibition) at 10uM” value of the first is higher: 13.7% for the first, -44% for the second.

Compared with `COc1ccccc1NC(=O)CN1CCN(CC(=O)Nc2ccc(S(N)(=O)=O)cc2)CC1`, `Cc1ccccc1NS(=O)(=O)c1ccc(C(=O)NCC2CCCO2)cc1` (stereo not shown) is higher in “hERG current change (%, negative = inhibition) at 10uM” value: -27.8% for the first, -0.334% for the second.

Compared with `COc1ccc(Cn2cc3c(-c4ccc(F)cc4)nnc-3c3cc(OC)c(OC)cc32)cc1`, `COc1ccc(C(=O)c2c(C)oc3ccc(O)cc23)cc1` is higher in “hERG current change (%, negative = inhibition) at 10uM” value: -88.2% for the first, 4.6% for the second.

First: COc1cccc(NC(=O)CCC2CCN(Cc3nccs3)CC2)c1
Second: CCc1ccc(-c2cc3c(=O)n(CC(=O)NCCCN4CCC(Cc5ccccc5)CC4)nc(C)n3n2)cc1
The “hERG current change (%, negative = inhibition) at 10uM” value of the first is lower: -2.63% for the first, 2.48% for the second.

Going from `COc1ccc2cc(C(=O)Nc3ccccc3)sc(=O)c2c1OC` to `COc1cccc(C2C=C(c3cccs3)Nc3ncnn32)c1OC` (stereo not shown), the “hERG current change (%, negative = inhibition) at 10uM” value falls from 29.7% to 11.1%.

Compared with `CCN1C/C(=C/c2cccs2)c2nc3ccccc3c(C(=O)O)c2C1`, `Cn1c(Cc2nc3ccccc3n2C)nc2ccccc21` is higher in “hERG current change (%, negative = inhibition) at 10uM” value: 1.33% for the first, 5.7% for the second.

Going from `CC1CCC(NC(=O)Cn2c(=O)oc3ccccc32)CC1` (stereo not shown) to `COC(=O)Cn1cc(C(=O)C2CC2)c2ccccc21`, the “hERG current change (%, negative = inhibition) at 10uM” value falls from 11.8% to 2.2%.

Compared with `C#CCOC(=O)CCCC(=O)Nc1ccccc1OC`, `O=C(COC(=O)C12CC3CC(CC(O)(C3)C1)C2)Nc1ccccc1OC(F)F` is lower in “hERG current change (%, negative = inhibition) at 10uM” value: 9.09% for the first, -9.92% for the second.

Compared with `C/C(CC(=O)Nc1ccc2ccccc2c1)=N\NC(=O)c1cnccn1`, `COc1ccc(/C=C(/NC(=O)c2ccccc2)C(=O)NCC2CCCO2)cc1` (stereo not shown) is higher in “hERG current change (%, negative = inhibition) at 10uM” value: -4.24% for the first, -0.598% for the second.

First: COC(=O)C1=C(C(=O)OC)[C@@H]2N(C)c3ccc(OC)cc3[C@@]23C[C@@H](C(=O)OC)N(C(=O)c2cc(C)oc2C)C3=N1
Second: Cc1ccc(NC(=O)CCNS(=O)(=O)c2ccc3c(c2)oc(=O)n3C)cc1C
The “hERG current change (%, negative = inhibition) at 10uM” value of the first is lower: -43.5% for the first, -8.38% for the second.

Going from `Cn1c(SCCC#N)nnc1-c1ccccc1F` to `Cc1ccc(NC(=O)CN(C)C(=O)CSc2nnc(C(F)(F)F)n2C)cc1`, the “hERG current change (%, negative = inhibition) at 10uM” value rises from 7.17% to 32.8%.

Going from `Cc1cc(-c2onc3ccc(Cl)cc23)ccc1O` to `Cc1ccc2nc(SCC(=O)c3ccc4c(c3)NC(=O)CO4)[nH]c2c1`, the “hERG current change (%, negative = inhibition) at 10uM” value falls from 17.2% to 0.357%.

First: CN(CC(O)COCc1ccc2c(c1)OCO2)C1CCCCC1.Cl (stereo not shown)
Second: CCN(CC)CC(O)COc1ccc2c(c1)OCO2.Cl (stereo not shown)
The “hERG current change (%, negative = inhibition) at 10uM” value of the first is higher: -20.6% for the first, -25.2% for the second.

First: COc1ccc(C(C#N)N2N=C(C)CC2c2ccccc2)cc1 (stereo not shown)
Second: c1ccc(CSC2=NNC(c3ccccn3)S2)cc1 (stereo not shown)
The “hERG current change (%, negative = inhibition) at 10uM” value of the first is lower: 9.47% for the first, 14.8% for the second.

Compared with `CCOc1ccc(CCNC(=O)CN2C(=O)NC3(CCc4ccccc43)C2=O)cc1OCC` (stereo not shown), `CCOC(=O)C(Cc1ccccc1)C(=O)Nc1ccc(NC(=O)C(Cc2ccccc2)C(=O)OCC)cc1` (stereo not shown) is lower in “hERG current change (%, negative = inhibition) at 10uM” value: -9.62% for the first, -14.5% for the second.

Compared with `CCN(CC)S(=O)(=O)c1ccc(N2CCOCC2)c(NC(=O)CC23CC4CC(CC(Br)(C4)C2)C3)c1`, `Fc1ccc(NC(=S)N2CCOCC2)c(F)c1` is higher in “hERG current change (%, negative = inhibition) at 10uM” value: -6.98% for the first, 14.7% for the second.

Compared with `Cc1ccc2[nH]c3c(Cl)ncnc3c2c1`, `FC(F)(F)c1ccc(Cl)c(-n2c(-c3cc(-c4ccco4)[nH]n3)n[nH]c2=S)c1` is higher in “hERG current change (%, negative = inhibition) at 10uM” value: 5.18% for the first, 17.8% for the second.

Going from `CS(=O)(=O)N(CC(=O)N1CCN(c2ccc(F)cc2)CC1)C1CCCCC1` to `CCOc1ccc(N(CC(=O)N2CCCC2)S(=O)(=O)c2ccc(Cl)cc2)cc1`, the “hERG current change (%, negative = inhibition) at 10uM” value rises from -22% to -9.37%.

Going from `CC1CCN(S(=O)(=O)c2cccc(C(=O)N(C)C3(C)CCS(=O)(=O)C3)c2)CC1` (stereo not shown) to `CS(=O)(=O)N1CCC(C(=O)O)CC1`, the “hERG current change (%, negative = inhibition) at 10uM” value rises from -13.9% to 8.55%.

Going from `CN(C)c1ccc(/C=c2/sc3n(c2=O)NC2(c4ccccc4)N(C)C(=O)N(C)C2(c2ccccc2)N=3)cc1` (stereo not shown) to `O=C(NC(Cc1ccccc1)C(=O)Oc1ccc2c(C(F)(F)F)cc(=O)oc2c1)OCc1ccccc1` (stereo not shown), the “hERG current change (%, negative = inhibition) at 10uM” value rises from -3.35% to 9.63%.

Going from `COC(=O)c1sccc1S(=O)(=O)Nc1ccc(Cl)cc1` to `O=C(NCC1CCCO1)c1ccc(CS(=O)(=O)c2ccc(Br)cc2)o1` (stereo not shown), the “hERG current change (%, negative = inhibition) at 10uM” value falls from -0.791% to -15.9%.

Going from `CCCCN=C(C)c1c(O)c2ccccc2oc1=O` to `Cc1ccccc1OCC(O)CN.Cl.O` (stereo not shown), the “hERG current change (%, negative = inhibition) at 10uM” value rises from -21.1% to -1.72%.

Going from `C=CCc1c(OC)ccc2ccc(=O)oc12` to `COc1ccc(CN2CC(C(=O)NCCCN3CCCCCC3)CC2=O)cc1` (stereo not shown), the “hERG current change (%, negative = inhibition) at 10uM” value falls from 19% to -10.4%.

First: c1csc(CN2CCOCC2)c1
Second: Cl.O=C(CCN1CCc2ccccc2C(c2ccccc2)C1)c1ccc2c(c1)OCCO2 (stereo not shown)
The “hERG current change (%, negative = inhibition) at 10uM” value of the first is higher: 17.1% for the first, -0.525% for the second.

Compared with `CCCCCOC(=O)CC(C(=O)OCCCCC)N1CCCCC1.Cl` (stereo not shown), `CC(C)c1onc(C(=O)NC2CCCCC2)c1[N+](=O)[O-]` is higher in “hERG current change (%, negative = inhibition) at 10uM” value: 1.05% for the first, 6.3% for the second.
